Experimental data: US4378360A, “6-{3-[4-(Substituted benzyl)-1-piperazinyl]propyloxy}-4,9-dihydro-4,9-dioxo-1H-naphtho[2,3-d-]- v” (Beecham Group Limited, priority 1980, dated 1983)

Target: T1, histamine on isolated guinea pig ileum (Cavia porcellus, UniProt P31389)
T1 construct: strips of terminal guinea pig ileum suspended in a 4 ml capacity organ bath; from tissue; host or cells: terminal ileum strips of guinea pig (Dunkin Hartley male white guinea pigs)
Experiment: Antihistamine activity (in vitro): antagonism of the spasmogenic effects of histamine on isolated guinea pig ileum
Conditions: Tyrode solution, 30° C., antagonist 5-640 ng/ml, several assays per compound, read-out: pA2 values obtained in different assays (converted)
Description: (b) antagonise the spasmogenic effects of histamine on isolated guinea pig ileum.
Charles River Sprague Dawley male rats of 225-275 g and Dunkin Hartley male white guinea pigs of 250-300 g were used.
The anti-histamine activity of these compounds were measured in terms of pA2 values on guinea pig ileum using the method described by Arunlakshana, O. and Schild, H. O. (Brit J Pharm, 14, 1959, 48).
The pA2 is defined as the negative logarithm of the molar concentration of antagonist that will reduce the response of a double dose of agonist to that of a single dose.
Assays were carried out using strips of terminal guinea pig ileum suspended in a 4 ml capacity organ bath. The ileum was immersed in aerated Tyrode solution at a temperature of 30° C. and a tension of 1 gm was applied to the gut. Longitudinal contractions of the gut were recorded isotonically using a 2LD01 Devices transducer, a R2502-2 Devices optical wedge and a RE511.20 Smiths servoscribe flat bed recorder.
The tissue was constantly immersed in Tyrode solution washing was by fluid displacement from below. […]
The height of the response was measured in mms and a mean value calculated. […] The dose of histamine which produced a response of 100 mms were obtained for each curve from the graph and the ratio designated CR was calculated from [formula] […]

T1 sequence (P31389 whole entry): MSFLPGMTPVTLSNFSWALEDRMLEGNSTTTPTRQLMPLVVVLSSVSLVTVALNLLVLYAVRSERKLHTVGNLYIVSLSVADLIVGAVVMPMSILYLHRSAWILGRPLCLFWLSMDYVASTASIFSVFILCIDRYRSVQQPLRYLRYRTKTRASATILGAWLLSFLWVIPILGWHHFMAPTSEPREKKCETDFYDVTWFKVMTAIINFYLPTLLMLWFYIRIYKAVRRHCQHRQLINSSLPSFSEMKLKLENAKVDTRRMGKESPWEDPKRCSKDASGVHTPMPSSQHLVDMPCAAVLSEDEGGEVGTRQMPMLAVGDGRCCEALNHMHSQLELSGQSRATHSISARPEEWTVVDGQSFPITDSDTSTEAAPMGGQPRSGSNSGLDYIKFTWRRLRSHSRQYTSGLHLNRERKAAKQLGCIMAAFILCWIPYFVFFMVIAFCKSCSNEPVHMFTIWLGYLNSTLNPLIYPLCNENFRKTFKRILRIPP

Kb: 891, 794, 63.1, 316 nM [one passage]
Structure (SMILES): O=C1c2cccc(OCCCN3CCN(Cc4ccc(Cl)cc4)CC3)c2C(=O)c2nn[nH]c21 [Example 4, 5-{3-[4-(4-Chlorobenzyl)-1-piperazinyl]-propyloxy}-4,9-dihydro-4,9-dioxo-1H-naphtho-[2,3-d]-v-triazole]

Not every entry of the source has a single result; some have several. This is not the full list of results. An entry can have further records. The values listed for one entry read as repeated measurements on other runs, samples or individuals; one of them may be the mean.
